Experimental data taken from PubChem BioAssay AID504832 (National Center for Advancing Translational Sciences (NCATS), 2011).
In all, about 310,000 compounds went through this assay and about 18,000 (5.8%) were called active. Inconclusive means that the source gave no clear call. Such entries were picked first, then a sample of the others. Calls come from the whole dose curve; as a rule, active = well fitted inhibition curve with a large enough effect; inconclusive = small, poorly fitted or top-dose-only effect, or another doubt; inactive = no such curve, though single readings can be large or run the other way. No potency is given beside an inconclusive call; the fits are too rough.

assay: Primary qHTS for delayed death inhibitors of the malarial parasite plastid, 48 hour incubation; conditions: P. falciparum luciferase growth in erythrocytes; series mostly up to 28.7 µM; activity change, negative = inhibition: at the top concentration
Method in brief: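 Compounds are pin-transferred into medium, infected erythrocytes (2% hematocrit, 0.1% parasitemia final) are added, and plates sit one parasite generation at 37 C in 5% CO2. Detection reagent is then added and luminescence measured.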
% is set by controls: 0 for no effect and ±100 for the full control effect; potency is the fitted concentration of half-maximal effect; tags give direction and shape of the fitted curve.

| Structure (SMILES) | activity change, negative = inhibition | Potency |
| --- | --- | --- |
| O=C1NC(N2CCOCC2)=N/C1=C/c1ccc2c(c1)OCO2 | inactive: 0.564% |  |
| COc1ccc2[nH]c(C(=O)NCCN3CCOCC3)cc2c1 | inactive: 5.67% |  |
| C/C(=N\NC(=O)CNC(=O)c1ccc2c(c1)OCCO2)c1ccco1 | inactive: 31.9% |  |
| O=c1oc2ccccc2c(N2CCCC2)c1[N+](=O)[O-] | inactive: 30.1% |  |
| COc1ccc(N2CCN(C(=O)C3(C)CC3(Cl)Cl)CC2)cc1 (centres undefined) | inactive: -4.14% |  |
| CN1N=C(C(=O)N2CCc3c([nH]c4ccccc34)C2c2c(F)cccc2Cl)CCC1=O (centres undefined) |  | inconclusive [inhibitor, partial curve] |
| C/C(=N\N=C(/N)SC1CC(=O)N(c2ccc(Cl)cc2)C1=O)c1cccs1 (centres undefined) |  | inconclusive [inhibitor, single point] |
| COC(=O)Nc1nn(-c2ccc(OC)cc2)c(=O)c(C#N)c1C | inactive: -5.93% |  |
| O=[N+]([O-])c1ccc(COc2ccc(Br)cc2CN2CCOCC2)cc1 | inactive: -15.6% |  |
| CCOc1ccccc1N1CCN(C(=O)Cc2ccc(S(=O)(=O)N3CCOCC3)s2)CC1 |  | inconclusive [inhibitor, partial curve, poor fit] |
| Cc1cccn2c(=O)c(C=Nc3ccc(Cl)cc3)c(NCCO)nc12 |  | inconclusive [inhibitor, single point] |
| COc1ccc2c(c1)OC[C@H]1[C@H]2N2C(=O)CN(CC3CCCO3)C(=O)[C@@]2(C)[C@H]1c1ccccc1 (some centres undefined) |  | inconclusive [inhibitor, single point] |
| O=C(NCc1ccccc1)c1ccc2nc(N3CCOCC3)sc2c1 | inactive: 10.9% |  |
| Cc1nc2c(c3c1[nH]c1ccccc13)C(=O)CC(C)(C)C2 |  | inconclusive [inhibitor, single point] |
| COc1ccc([C@H]2CC(=O)C=C(c3cccc(C#N)c3)C2)cc1 |  | inconclusive [inhibitor, single point] |
| CCCCNC(=O)c1c(CSc2ccccc2)noc1C(=O)NCc1ccccc1 |  | inconclusive [inhibitor, single point] |
| CCN(CC(O)COCc1ccc(Cl)cc1)C1CCCCC1 (centres undefined) |  | active: 10.4 µM |
| COc1cccc(OCC(Cn2cnc3ccccc32)OC(C)=O)c1 (centres undefined) | inactive: -29.4% |  |
| Cc1ccc(OCCn2c(=O)cnc3ccccc32)cc1 |  | inconclusive [inhibitor, single point] |
| COc1ccc(N(CC(=O)Nc2ccc3c(c2)OCCO3)S(=O)(=O)c2cccc(C)c2)cc1 |  | inconclusive [inhibitor, single point] |
| Cc1ccc(S(=O)(=O)N2CCOCC2)cc1C(=O)Nc1ccc2c(c1)CCC2 |  | inconclusive [inhibitor, partial curve, poor fit] |
| c1ccc2c(c1)NCC1CCCN21 (centres undefined) |  | inconclusive [inhibitor, single point] |
| O=C1CSc2ccccc2N1Cc1ccccc1F |  | inconclusive [inhibitor, single point] |

| Structure (SMILES) | activity change, negative = inhibition | Potency |
| --- | --- | --- |
| Cc1cc(=O)n2c(n1)NC(=NCc1ccccc1)NC2c1ccccc1 (centres undefined) |  | inconclusive [inhibitor, single point] |
| O=C(O)CN=C1NC2(CCCC2)Cc2ccccc21 |  | inconclusive [inhibitor, full curve, poor fit] |
| CCCCN(C)CCN1C(=O)C2C(C(=O)Nc3cccc(OC)c3)C3C=CC2(O3)C1C(=O)NC1CCCCC1C (centres undefined) |  | inconclusive [inhibitor, single point] |
| O=C(NCCC1=CCCCC1)C1CCCN(S(=O)(=O)c2ccc(F)cc2)C1 (centres undefined) |  | inconclusive [inhibitor, single point] |
| CC(C)CC(=O)NC(=S)Nc1ccc(NC(=O)c2ccco2)cc1 |  | inconclusive [inhibitor, partial curve] |
| CC1=CC2CC1C1C(=O)N(c3ccc(S(=O)(=O)Nc4nc(C)cc(C)n4)cc3)C(=O)C21 (centres undefined) | inactive: 15.3% |  |
| COC(=O)c1c(NC(=O)CSc2nc3ccccc3c(=O)n2-c2ccccc2)sc(C)c1C |  | inconclusive [inhibitor, single point] |
| CC(C)n1c(=S)[nH]c2cc(C(F)(F)F)ccc21 |  | inconclusive [inhibitor, partial curve, poor fit] |
| COC(=O)c1[nH]c2ccc(C)cc2c1NC(=O)CN1CCC(C)CC1 | inactive: -17.7% |  |
| Cc1ccc(OCc2nnc(SCC(=O)CC(=O)Nc3ccccc3)o2)cc1 |  | inconclusive [inhibitor, single point] |
| Cc1ccc2[nH]c3c(NCCCN4CCCC4=O)ncnc3c2c1 |  | inconclusive [inhibitor, single point] |
| CC12CCC(c3c(C(=O)Nc4nccs4)nn(-c4ccccc4)c31)C2(C)C (centres undefined) |  | inconclusive [inhibitor, single point] |
| COc1cccc(=O)c2c(C)n(-c3ccc(C(=O)O)cc3)c(C)c12 |  | inconclusive [inhibitor, single point] |
| Cc1cc(C)cc(NC(=S)/C(=C(\[O-])c2ccc(Cl)s2)[n+]2cccc(C)c2)c1 |  | inconclusive [inhibitor, single point] |
| CCOc1cc(C2C(C(=O)c3ccco3)=C(O)C(=O)N2Cc2ccccc2)ccc1O (centres undefined) | inactive: 27.2% |  |
| COCc1c(Br)c(C)nc(OCC(=O)N/N=C/c2cc(C)n(-c3ccc([N+](=O)[O-])cc3)c2C)c1C#N |  | active: 11.7 µM |
| CCOc1ccc(S(=O)(=O)Nc2cccc(C(=O)N3CC(C)OC(C)C3)c2)cc1 (centres undefined) |  | inconclusive [inhibitor, single point] |
| CC(C)CCNC(=O)c1cc2c(=O)n3ccccc3nc2s1 | inactive: 43.4% |  |
| CCN(CC)CCCn1c2c(c(SCC(=O)Nc3ccccc3Cl)nc1=O)CCC2 |  | inconclusive [inhibitor, single point] |
| O=C(Nc1ccc2c(c1)OCO2)C1COc2ccccc2O1 (centres undefined) | inactive: 78.6% |  |
| COc1ccccc1NC(=O)CSc1ccc2nnc(-c3ccc(C)cc3)n2n1 |  | inconclusive [inhibitor, single point] |
| O=C(Cn1nc(C(=O)O)c2ccccc2c1=O)Nc1ccc2c(c1)C(=O)c1ccccc1C2=O | inactive: 73.5% |  |
| Cc1ccc(OCC(=O)N2CCCC(N3CCN(c4ccc(F)cc4)CC3)C2)cc1 (centres undefined) |  | inconclusive [inhibitor, partial curve, poor fit] |

| Structure (SMILES) | activity change, negative = inhibition | Potency |
| --- | --- | --- |
| CN(Cc1ccccc1)C(=O)c1ccc(NC(=O)Cc2cccc(NC(=O)C3CCCN(C(=O)C4CCCC4)C3)c2)cc1 (centres undefined) |  | active: 11.7 µM |
| CCOC(=O)C1=C(COc2ccccc2)NC(=O)NC1c1ccc(Br)cc1 (centres undefined) |  | inconclusive [inhibitor, single point] |
| Cc1ccc(C(C(=O)NC2CCCC2)N(C(=O)Cc2cccs2)c2cccc(C)c2C)o1 (centres undefined) |  | inconclusive [inhibitor, single point] |
| CC(=O)Nc1ccc(S(=O)(=O)Nc2nc3ccccc3nc2Nc2ccc(N)cc2)cc1 |  | inconclusive [inhibitor, single point] |
| COc1ccccc1N1CCN(C(=O)c2c(C)cc(=O)oc2C)CC1 | inactive: 7.06% |  |
| CCOC(=O)C1=C(C)NC(=O)NC1c1cn(-c2ccccc2)nc1-c1cccs1 (centres undefined) |  | inconclusive [inhibitor, single point] |
| O=C(O)C1=CC[C@@H](c2ccc(Cl)cc2)N(S(=O)(=O)c2ccc(Cl)cc2)[C@H]1c1ccccc1 | inactive: -55.8% |  |
| COc1ccc(C2C3=C(N=C4SCC(=O)N42)c2ccccc2CC3)cc1 (centres undefined) |  | inconclusive [inhibitor, single point] |
| CC(C)(C)OC(=O)CNC(=O)c1nc[nH]c1C(=O)NCc1ccc(CNC(=O)OC(C)(C)C)cc1 |  | inconclusive [inhibitor, partial curve] |
| Nc1nonc1-n1nnc(C(=O)N/N=C/c2ccccc2)c1CN1CCc2ccccc21 |  | inconclusive [inhibitor, partial curve] |
| Oc1ccc(Cl)cc1CNCc1ccc(C(F)(F)F)cc1 |  | active: 1.17 µM |
| CC(=C/c1ccc(C(C)C)cc1)/C=N/NC(=O)CSc1ccccn1 |  | inconclusive [inhibitor, single point] |
| CCOc1ccc(/C=N/NC(=O)c2csc(C)c2C)c(OCC)c1 | inactive: 3.17% |  |
| CCOC(=O)/C=C1\Nc2ccccc2SC1=O |  | inconclusive [inhibitor, full curve, poor fit] |
| N#Cc1ccccc1S(=O)(=O)N1CCC(C(=O)NCc2ccccc2CN2CCCC2)CC1 |  | inconclusive [inhibitor, single point] |
| Cc1ccc(-c2csc(CC(N)=O)n2)cc1 | inactive: 63.7% |  |
| Cc1cc2nc(C)n(CCCNC(=O)Nc3ccc(C#N)cc3)c2cc1C |  | active: 10.4 µM |
| Oc1ccccc1/C=N/NC(=S)NC1CC2CCC1C2 (centres undefined) |  | active: 3.7 µM |
| CC(=O)NC12CC3CC(C1)CC(C(=O)N(C)CC(=O)Nc1cccc(F)c1)(C3)C2 |  | inconclusive [inhibitor, single point] |
| O=C(Cc1ccsc1)NNC(=O)c1ccccc1Cl | inactive: -14.9% |  |
| CC1(C)O[C@@H]2C[C@@H]3[C@H]4C[C@@H](F)C5=CC(=O)C=C[C@]5(C)[C@@]4(F)[C@@H](O)C[C@]3(C)[C@]2(C(=O)CO)O1 |  | inconclusive [inhibitor, single point] |
| CCOCC(=O)Nc1cc(C(=O)Nc2ccccc2)ccc1Cl | inactive: 45.7% |  |
| CC(=O)N1c2ccc(S(=O)(=O)NCC3CCC(C(=O)N(C)Cc4ccccc4)CC3)cc2CC1C (centres undefined) |  | active: 13.1 µM |
